Results reported in the supplement of paper PMC11417369.
± gives the standard deviation of the averaged measurements. Some of the results follow.

These sequences were tested on PfAP2-LT AP2 domain (GST-tagged) (assay: gcPBM binding intensity (ln(normalized median fluorescence intensity)); higher = stronger DNA binding).
How it was run: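 The binding buffer was 1× PBS containing 1% milk, 0.2 mg/ml BSA, 0.5% salmon testes DNA and 0.03% Triton X-100. In it, GST-tagged P. falciparum DNA-binding domains expressed in E. coli were applied for 1 h to an Agilent 4 × 180k array of primer-extended double-stranded 36-bp intergenic genomic probes plus negative controls. Binding intensity, read with Alexa488 anti-GST antibody and a 488 nm scan, is the highest Masliner-normalised natural-log median intensity across replicate spots of either probe orientation.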

Sequence | gcPBM binding intensity (ln)
TGTAGAATTTCCTGAACATGCAAATAATTTTCCTTA [TGCATGCA_site881] | 8.33 ± 0.45
AGGTCTGTTTTATATTGTACATAAAAAGTGCACATG [XGTACX_site4529] | 8.82 ± 0.45
TAATTATAAATTATAGTGCATAAAATTGTAGCATAA | 8.64 ± 0.51
GACATTTGTGAGCTTGAGCCGTCAAACCACTAAATA [CACACA_negctrl_site552] | 8.73 ± 0.38
AAAATATGATATGAAAAATTTGTTATATATACATAA [CACACA_negctrl_site1529] | 8.51 ± 0.47
CATATTCCAAGAATGTGTACATAATTTTTTTTTTTT [XGTACX_site4310] | 8.62 ± 0.3
CTCATAATTTCTGAACGTACGTATTTCTCATTTTTA [XGTACX_site7296] | 8.76 ± 0.45
ATTTTTTTTTAATGCAAAAGGTGATGATCGGTCATA [CACACA_negctrl_site959] | 8.34 ± 0.45
TTCTATAAGTATAAATGTACAAAAAAAACATCATTC [XGTACX_site5450] | 8.74 ± 0.45
ATTATCCATGCATTTACACACACACTAATAAAAATT [CACACA_site9358] | 9.5 ± 0.33
TTTAACATAAATTAAACACACAATAAAATACATTAA [CACACA_site6699] | 8.78 ± 0.43
CATAAATACAGATATACACACATATATATATATATA [CACACA_site4528] | 9.7 ± 0.45
GAGGTACATTAATTAGTGCATTAAAATTTTTATCCT | 8.62 ± 0.42
ATAATACATATAGAAGGTACACTATTATTTTCCTGA [XGTACX_site903] | 8.74 ± 0.43
TGGAAACAAAAACACACACACAAAAAAAAAAAAAAA [CACACA_site3209] | 9.21 ± 0.61
TGTATTATTAATATTTGTACGTAATAATAAAAACAT [XGTACX_site3716] | 8.72 ± 0.48
TCCTTAGAAATATTGATCATAAACTGGAAAGGTATA [XGTACX_negctrl_site354] | 8.33 ± 0.38
GAAATATATAAATTGACACACACATATATACATATA [CACACA_site8323] | 9.38 ± 0.33
TAATTTCTTATGTATTGTACAAATAATATATTATTT [XGTACX_site3066] | 8.78 ± 0.49
ATTCAAAATAATCACAGTACACATGAGATTATCTTT [XGTACX_site2197] | 8.73 ± 0.45
TTAATATGGAAATGTTGTACATTTCTTGAAGCATTC [XGTACX_site525] | 8.47 ± 0.32
ACTTCATAAACATTTTGTACGTATGTATCTTTTTAT [XGTACX_site7012] | 9.18 ± 0.52

Sequence | gcPBM binding intensity (ln)
TTATTGAAAAACATAATATCTAAGAGGGTAATATAT [GTGCAC_negctrl_site599] | 8.54 ± 0.4
TATATATATATGTACACACACACATATAAATAAATA [CACACA_site443] | 9.66 ± 0.24
TAAAAGGGGATATATGAACACACAAAAAAAAAATAT [CACACA_site8940] | 9.04 ± 0.64
CATATTTTTTCTTAAACACACACATATATATATATA [CACACA_site8920] | 9.27 ± 0.27
TTAAAAAAAAAAAAAAGTACATAAGTATATATAATA [XGTACX_site4295] | 8.56 ± 0.46
ATATTAAGTTTTATTACACACTCTCAATTTTTATTT [CACACA_site4206] | 8.95 ± 0.43
TAAATGTTTCTCAAAAGTACACATGTGATATTTCTT [XGTACX_site2065] | 8.6 ± 0.33
TTAAAAATATTATGTACACACATTTTAGATATTTGT [CACACA_site1846] | 9.04 ± 0.43
TAAATATATATATATTGTACAAAACAAATGTGAATT [XGTACX_site696] | 8.99 ± 0.46
TCCTAATATTTGTCAAATTTCAAAATAAATAAAATG [XGTACX_negctrl_site540] | 8.2 ± 0.31
TAATTAAAATCATATACACACCCATATATATATATA [CACACA_site8524] | 9.525 ± 0.035
ATATAGTAAATGTTCACACATACAAATATATATATA [CACACA_site5518] | 9.05 ± 0.38
AAGTTTTCTTAAAGCTGTACTTTTTAAAAATAAAAT [XGTACX_site7716] | 8.11 ± 0.46
TATATATAATTATAAGAACACACATATATATATATA [CACACA_site8786] | 9.46 ± 0.36
TACAAATATAGATGCACACACATATAGGTATATGTG [CACACA_site7439] | 9.77 ± 0.38
ATATATTTCTGTCAAGCACACATAATATTAATATAT [CACACA_site7993] | 9.14 ± 0.48
AATGATACTTAGGGGCATGTCTCTGGGGGCATAACC [CACACA_negctrl_site591] | 9.27 ± 0.16
CATATTATATTTTCATGTACACATAACATATTTATA [XGTACX_site4787] | 8.76 ± 0.42
GTTATAAACAAAATAAATATATGAATATATAATAAT [XGTACX_negctrl_site96] | 8.71 ± 0.4
ATAATTATTAAGAGAACATGCAAAATATATATGTTT [TGCATGCA_site503] | 8.79 ± 0.42
AAAGCACCCAGGCACACACACAAAGGAAAAGAAAAA [CACACA_site232] | 9.79 ± 0.53
ATATATATTTCTTAAAGTACATAATAATAAAAATAT [XGTACX_site8981] | 8.55 ± 0.31
